Assay results reported in the supplement of paper PMC8728848.
Some of the results follow.

Key:
Assay in all cases: glycan array binding signal (z-score within array); higher = stronger binding
Settings in all cases: glycan notation: IUPAC condensed, linker removed
[1] = target: Neu5Ac(a2-3)Gal(b1-4)GlcNAc(b1-6)GalNAc
Procedure, shortened: (§1)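 Glycan array data were curated from 3228 arrays in the Consortium for Functional Glycomics database and kept only where the protein sequence was available. Glycan names were converted to IUPAC-condensed notation, and columns mapping to the same glycan were averaged. The binding signal is a within-array Z-score, averaged across arrays of the same protein sequence at different concentrations or buffers and across linkers. Negative Z-scores can be read as non-binding.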

[2] = target: Neu5Ac(a2-3)Gal(b1-4)GlcNAc(b1-6)[Gal(b1-3)]GalNAc
Procedure, shortened: as §1

[3] = target: Neu5Ac(a2-3)Gal(b1-4)GlcNAc(b1-6)[Neu5Ac(a2-3)Gal(b1-3)]GalNAc
Procedure, shortened: as §1

[4] = target: Neu5Ac(a2-3)Gal(b1-4)GlcNAc6S
Procedure, shortened: as §1

[5] = target: Neu5Ac(a2-3)Gal(b1-4)[Fuc(a1-3)]GlcNAc
Procedure, shortened: as §1

[6] = target: Neu5Ac(a2-3)Gal(b1-4)[Fuc(a1-3)]GlcNAc(b1-2)Man
Procedure, shortened: as §1

[7] = target: Neu5Ac(a2-3)Gal(b1-4)[Fuc(a1-3)]GlcNAc(b1-3)Gal
Procedure, shortened: as §1

[8] = target: Neu5Ac(a2-3)Gal(b1-4)[Fuc(a1-3)]GlcNAc(b1-3)Gal(b1-4)GlcNAc
Procedure, shortened: as §1

[9] = target: Neu5Ac(a2-3)Gal(b1-4)[Fuc(a1-3)]GlcNAc(b1-3)Gal(b1-4)[Fuc(a1-3)]GlcNAc(b1-3)Gal(b1-4)[Fuc(a1-3)]GlcNAc
Procedure, shortened: as §1

[10] = target: Neu5Ac(a2-3)Gal(b1-4)[Fuc(a1-3)]GlcNAc(b1-3)GalNAc
Procedure, shortened: as §1

[11] = target: Neu5Ac(a2-3)Gal(b1-4)[Fuc(a1-3)]GlcNAc(b1-6)[Gal(b1-3)]GalNAc
Procedure, shortened: as §1

[12] = target: Neu5Ac(a2-3)Gal(b1-4)[Fuc(a1-3)]GlcNAc(b1-6)[Neu5Ac(a2-3)Gal(b1-3)]GalNAc
Procedure, shortened: as §1

[13] = target: Neu5Ac(a2-3)Gal(b1-4)[Fuc(a1-3)]GlcNAc6S
Procedure, shortened: as §1

[14] = target: Neu5Ac(a2-3)Gal6S(b1-4)GlcNAc
Procedure, shortened: as §1

[15] = target: Neu5Ac(a2-3)Gal6S(b1-4)[Fuc(a1-3)]GlcNAc
Procedure, shortened: as §1

[16] = target: Neu5Ac(a2-3)GalNAc
Procedure, shortened: as §1

[17] = target: Neu5Ac(a2-3)GalNAc(b1-4)GlcNAc
Procedure, shortened: as §1

[18] = target: Neu5Ac(a2-3)[GalNAc(b1-4)]Gal(b1-4)Glc
Procedure, shortened: as §1

[19] = target: Neu5Ac(a2-3)[GalNAc(b1-4)]Gal(b1-4)GlcNAc
Procedure, shortened: as §1

[20] = target: Neu5Ac(a2-3)[GalNAc(b1-4)]Gal(b1-4)GlcNAc(b1-3)GalNAc
Procedure, shortened: as §1

[21] = target: Neu5Ac(a2-3)[Neu5Ac(a2-6)]GalNAc
Procedure, shortened: as §1

[22] = target: Neu5Ac(a2-6)Gal
Procedure, shortened: as §1

[23] = target: Neu5Ac(a2-6)Gal(b1-3)GlcNAc(b1-3)[Gal(b1-4)GlcNAc(b1-6)]Gal(b1-4)Glc
Procedure, shortened: as §1

[24] = target: Neu5Ac(a2-6)Gal(b1-4)Glc
Procedure, shortened: as §1

[25] = target: Neu5Ac(a2-6)Gal(b1-4)GlcNAc
Procedure, shortened: as §1

[26] = target: Neu5Ac(a2-6)Gal(b1-4)GlcNAc(b1-2)Man
Procedure, shortened: as §1

[27] = target: Neu5Ac(a2-6)Gal(b1-4)GlcNAc(b1-2)Man(a1-3)Man(b1-4)GlcNAc(b1-4)GlcNAc
Procedure, shortened: as §1

[28] = target: Neu5Ac(a2-6)Gal(b1-4)GlcNAc(b1-2)Man(a1-3)[Gal(b1-4)GlcNAc(b1-2)Man(a1-6)]Man(b1-4)GlcNAc(b1-4)GlcNAc
Procedure, shortened: as §1

[29] = target: Neu5Ac(a2-6)Gal(b1-4)GlcNAc(b1-2)Man(a1-3)[GlcNAc(b1-4)][Neu5Ac(a2-6)Gal(b1-4)GlcNAc(b1-2)Man(a1-6)]Man(b1-4)GlcNAc(b1-4)GlcNAc
Procedure, shortened: as §1

[30] = target: Neu5Ac(a2-6)Gal(b1-4)GlcNAc(b1-2)Man(a1-3)[Man(a1-6)]Man(b1-4)GlcNAc(b1-4)GlcNAc
Procedure, shortened: as §1

B1: LecB PA14 (Pseudomonas aeruginosa) (protein)
chain: MATQGVFTLPANTQFGVTAFANSAGTQTVNVQVNNETVATFTGQSTNNAIIGSKVLNSGGGGKVQILVSVNGRSSDLVSAQVILANELNFALVGSEDSTDNDYNDAVVVINWPLG
- glycan array binding signal (z-score) [1]: 0.011
- glycan array binding signal (z-score) [2]: 0.148
- glycan array binding signal (z-score) [3]: -0.723
- glycan array binding signal (z-score) [4]: -0.693
- glycan array binding signal (z-score) [5]: -0.158
- glycan array binding signal (z-score) [6]: 0.26
- glycan array binding signal (z-score) [7]: 0.275
- glycan array binding signal (z-score) [8]: 0.709
- glycan array binding signal (z-score) [9]: 2.09
- glycan array binding signal (z-score) [10]: -0.174
- glycan array binding signal (z-score) [11]: 0.201
- glycan array binding signal (z-score) [12]: -0.054
- glycan array binding signal (z-score) [13]: 0.335
- glycan array binding signal (z-score) [14]: -0.313
- glycan array binding signal (z-score) [15]: -0.517
- glycan array binding signal (z-score) [16]: -0.37
- glycan array binding signal (z-score) [17]: -0.298
- glycan array binding signal (z-score) [18]: -0.699
- glycan array binding signal (z-score) [19]: -0.48
- glycan array binding signal (z-score) [20]: -0.357
- glycan array binding signal (z-score) [21]: 0.133
- glycan array binding signal (z-score) [22]: -0.036
- glycan array binding signal (z-score) [23]: 0.253
- glycan array binding signal (z-score) [24]: -0.433
- glycan array binding signal (z-score) [25]: -0.39
- glycan array binding signal (z-score) [26]: -0.962
- glycan array binding signal (z-score) [27]: 0.474
- glycan array binding signal (z-score) [28]: 0.203
- glycan array binding signal (z-score) [29]: -0.346
- glycan array binding signal (z-score) [30]: -0.527
